Experimental data from the supplement of paper PMC9151546.
Many values rest on one well or one pass, so single values are uncertain.

Key:
CHO-K1 [1] = test: micronucleus frequency (% of nucleated events); higher = more micronuclei (genotoxic)
CHO-K1 [2] = test: hypodiploid nuclei frequency (% of nucleated events); higher = more hypodiploid events (aneugenic)
CHO-K1 [3] = test: relative survival (nuclei to bead ratio vs DMSO control) (% of vehicle control); higher = more surviving cells
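Throughout, for hypodiploid nuclei frequency (% of nucleated events): hypodiploid nuclei gated on a flow cytometer with 488 nm excitation after SYTOX Green staining, cultures at 37 °C, positive controls vinblastine without S9 and cyclophosphamide with S9.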
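Throughout, for micronucleus frequency (% of nucleated events): cells lysed with nuclei stained by SYTOX Green, then micronucleus-gated events counted against nucleated events by flow cytometry with 488 nm excitation.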
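Throughout, for relative survival (nuclei to bead ratio vs DMSO control): Lysed-cell nuclei stained with SYTOX Green and counted against counting beads by flow cytometry at 488 nm excitation, with vinblastine (no S9) and cyclophosphamide (plus S9) as positive controls.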

O=c1n(CC2CO2)c(=O)n(CC2CO2)c(=O)n1CC1CO1 (stereo unspecified) [Triglycidyl isocyanurate]
Details | hypodiploid nuclei frequency, CHO-K1 [2] [%] | micronucleus frequency, CHO-K1 [1] [%] | relative survival, CHO-K1 [3]
concentration: 4.5 (µM), S9 metabolic activation: with S9, exposure time: 3-4 hours | 0.24 | 1.9 | 99.8
concentration: 4.5 (µM), S9 metabolic activation: without S9, exposure time: 24 hours | 0.82 | 13.1 | 71.6
concentration: 5.63 (µM), S9 metabolic activation: with S9, exposure time: 3-4 hours | 0.32 | 2.92 | 104
concentration: 5.63 (µM), S9 metabolic activation: without S9, exposure time: 24 hours | 1.32 | 14.2 | 64.7
concentration: 7.04 (µM), S9 metabolic activation: with S9, exposure time: 3-4 hours | 0.22 | 2.6 | 114
concentration: 7.04 (µM), S9 metabolic activation: without S9, exposure time: 24 hours | 1.06 | 14.4 | 64.9
concentration: 8.8 (µM), S9 metabolic activation: with S9, exposure time: 3-4 hours | 0.34 | 2.78 | 116
concentration: 8.8 (µM), S9 metabolic activation: without S9, exposure time: 24 hours | 0.96 | 16.9 | 66.7
concentration: 11 (µM), S9 metabolic activation: with S9, exposure time: 3-4 hours | 0.2 | 2.72 | 95.1
concentration: 11 (µM), S9 metabolic activation: without S9, exposure time: 24 hours | 1.18 | 18.9 | 59.7
concentration: 13.7 (µM), S9 metabolic activation: with S9, exposure time: 3-4 hours | 0.24 | 4.6 | 116
concentration: 13.7 (µM), S9 metabolic activation: without S9, exposure time: 24 hours | 1.08 | 17.9 | 62.4
concentration: 17.2 (µM), S9 metabolic activation: with S9, exposure time: 3-4 hours | 0.3 | 4.32 | 103
concentration: 17.2 (µM), S9 metabolic activation: without S9, exposure time: 24 hours | 0.94 | 20.6 | 73.8
concentration: 21.5 (µM), S9 metabolic activation: with S9, exposure time: 3-4 hours | 0.12 | 4.06 | 122
concentration: 21.5 (µM), S9 metabolic activation: without S9, exposure time: 24 hours | 1.06 | 18.6 | 54
concentration: 26.8 (µM), S9 metabolic activation: with S9, exposure time: 3-4 hours | 0.44 | 6.28 | 74.1
concentration: 26.8 (µM), S9 metabolic activation: without S9, exposure time: 24 hours | 1.92 | 23.5 | 60.1
concentration: 33.6 (µM), S9 metabolic activation: with S9, exposure time: 3-4 hours | 0.28 | 5.72 | 93.5
concentration: 33.6 (µM), S9 metabolic activation: without S9, exposure time: 24 hours | 2.16 | 24.6 | 69
concentration: 41.9 (µM), S9 metabolic activation: with S9, exposure time: 3-4 hours | 0.34 | 7.36 | 67
concentration: 41.9 (µM), S9 metabolic activation: without S9, exposure time: 24 hours | 3.16 | 23.4 | 43.9
concentration: 52.4 (µM), S9 metabolic activation: with S9, exposure time: 3-4 hours | 0.38 | 7.74 | 69.5
concentration: 52.4 (µM), S9 metabolic activation: without S9, exposure time: 24 hours | 3.94 | 21.2 | 55
concentration: 65.5 (µM), S9 metabolic activation: with S9, exposure time: 3-4 hours | 0.52 | 11.4 | 61.2
concentration: 65.5 (µM), S9 metabolic activation: without S9, exposure time: 24 hours | 6.56 | 25.5 | 43.5
concentration: 81.9 (µM), S9 metabolic activation: with S9, exposure time: 3-4 hours | 0.58 | 11.5 | 64.6
concentration: 81.9 (µM), S9 metabolic activation: without S9, exposure time: 24 hours | 7.46 | 27.8 | 49.1
concentration: 102 (µM), S9 metabolic activation: with S9, exposure time: 3-4 hours | 0.64 | 14.5 | 48.6
concentration: 102 (µM), S9 metabolic activation: without S9, exposure time: 24 hours | 6.16 | 28.5 | 50.1
concentration: 128 (µM), S9 metabolic activation: with S9, exposure time: 3-4 hours | 1.14 | 15 | 48.8
concentration: 128 (µM), S9 metabolic activation: without S9, exposure time: 24 hours | 4.56 | 19.6 | 53.9
concentration: 160 (µM), S9 metabolic activation: with S9, exposure time: 3-4 hours | 1.32 | 15.4 | 54.6
concentration: 160 (µM), S9 metabolic activation: without S9, exposure time: 24 hours | 2.22 | 11.5 | 41.7
concentration: 200 (µM), S9 metabolic activation: with S9, exposure time: 3-4 hours | 1.9 | 13.4 | 49.9
concentration: 200 (µM), S9 metabolic activation: without S9, exposure time: 24 hours | – | – | 28.1
